Data published in PubChem BioAssay AID686971 (National Center for Advancing Translational Sciences (NCATS), 2013).
Screen size: about 360,000 compounds; about 7,500 (2.1%) were called active. The inconclusive results got no clear call from the source; some entries with a clear call stand among them for comparison. The call rests on the fitted dose curve; in most records, active means well fitted cell-killing curve with a large enough effect; inconclusive means small, poorly fitted or top-dose-only effect, or effect the other way, or another doubt; inactive means no such curve, though single readings can be large or run the other way. Potencies of inconclusive entries are left out as doubtful fits.

Assay: qHTS for induction of synthetic lethality in tumor cells producing 2HG: qHTS for the HT-1080-IDH1KD cell line;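 on activity, negative = toxicity: 0% = DMSO wells and -100% = cell-free medium wells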
Conditions: HT-1080 IDH1 knockdown viability, ATP luminescence, 48 h; activity, negative = toxicity: at 46.1 µM (top of the series) unless noted
Method in brief: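 % activity derives from luminescence (CellTiter-Glo), normalised to DMSO and no-cell wells. HT-1080-IDH1KD cells, 750/well, had 48 h compound exposure at 37 °C.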
Potency means the concentration at half of the fitted maximal effect; tags describe the fitted curve by direction and shape.

Structure (SMILES)	Potency	activity, negative = toxicity
COc1cc(/C=N/NC(=O)c2cc(-c3cccs3)nc3ccccc23)ccc1O	inconclusive [cytotoxic, single point]	–
Cc1ccc(-c2cccc(C(=O)NCc3ccccc3)n2)c2ccccc12	inconclusive [cytotoxic, single point]	–
COc1ccc(-n2nnc3c(SCC(=O)NCc4ccco4)ncnc32)cc1	inconclusive [cytotoxic, single point]	–
Cc1c(C(=O)NCc2ccc3c(c2)OCO3)oc2ccc(Br)cc12	inconclusive [cytotoxic, single point]	–
Cc1oc(C(C)(C)C)cc1C(=O)N1CCN(C(c2ccccc2)c2ccccc2)CC1	inconclusive [cytotoxic, single point]	–
CNc1ccc(Br)cc(C(=O)/C=C/c2ccc3c(c2)OCO3)c1=O	inconclusive [cytotoxic, single point]	–
COc1ccc(-n2c(SCc3ccc([N+](=O)[O-])cc3)nnc2-c2ccccc2)cc1	inconclusive [cytotoxic, single point]	–
O=C1C=CC(O)(c2cc(=O)c3c(O)cc(O)cc3o2)C=C1	active: 7.31 µM	–
O=C(N/N=C/c1ccccn1)c1cc(-c2ccc(Br)cc2)nc2ccccc12	inconclusive [cytotoxic, single point]	–
Cn1c(=O)[nH]c(=O)c2c1nc(Br)n2CCC(=O)c1ccccc1	inactive	–
N#Cc1ccccc1NC(=O)COC(=O)c1ccc2c(c1)OCO2	inactive	–
CN(CC(=O)Nc1ccc(Cl)c(Cl)c1)C(=O)C12CC3CC(CC(C3)C1)C2	inactive	–
COc1ccc(C(C(=O)NC2CCCCC2)N(C(=O)CCl)c2cccc(Cl)c2)cc1 (centres undefined)	active: 1.64 µM	–
O=C(C[n+]1ccc(Cc2ccccc2)cc1)Nc1ccc([N+](=O)[O-])cc1Cl	inactive	–
Clc1ccc(-n2c(SC/C=C/c3ccccc3)nnc2-c2cccnc2)cc1	inconclusive [cytotoxic, single point]	–
ONC(=Nc1ccccc1Cl)c1c(F)cccc1F	inactive	–
CC(C)(C)CC(C)(C)NC(=O)Nc1cccc([N+](=O)[O-])c1	inconclusive [cytotoxic, single point]	–
COc1ccc(Oc2c(Cl)cnn(-c3ccc(Cl)c(Cl)c3)c2=O)cc1	inconclusive [cytotoxic, single point]	–
COc1ccc(OCCN(C)CC(=O)Nc2c(C)cccc2C)cc1	inactive	–
C=CCNC(=O)NC(=O)COC(=O)c1ccccc1Sc1ccc(C(F)(F)F)cc1[N+](=O)[O-]	inconclusive [cytotoxic, partial curve]	–
COC(=O)c1ccc(OCCN2C3=NCCN3c3ccccc32)cc1	inconclusive [cytotoxic, single point]	–
CC(C)C[C@H]1COc2cc(N3CCC[C@@H]3CO)ccc2S(=O)(=O)N1	inactive	–
Cc1ccc(S(=O)(=O)/N=C2\C(=O)c3ccccc3C([O-])=C2n2cc[n+](CCC(C)C)c2)cc1	active: 10 µM	–

Structure (SMILES)	Potency	activity, negative = toxicity
O=C(N/N=C/c1ccc[nH]1)c1cc2ccccc2cc1O	inconclusive [cytotoxic, partial curve]	–
CC1CCCC(C)N1C(=O)COC(=O)c1cc(=O)[nH]c2ccccc12 (centres undefined)	inactive	–
O=C1NC(c2cccc(Cl)c2)Oc2ccccc21 (centres undefined)	inactive	–
CC(C)Cn1cnc2c(c1=N)C(c1ccccc1)C1=C(CC(C)(C)CC1=O)O2 (centres undefined)	inconclusive [cytotoxic, single point]	–
COc1ccccc1OCCC(=O)OCC(=O)Nc1cccc(Br)c1	–	inconclusive: 31.8%
CCOc1ccc2nc(NC(=O)c3ccc(C)o3)sc2c1	inconclusive [cytotoxic, single point]	–
COCCNC(=S)N1CCC2CC1c1cc(-c3ccc4c(c3)OCO4)ccc12 (centres undefined)	inconclusive [cytotoxic, single point]	–
Cc1ccc(S(=O)(=O)N(CC(=O)N2CCCC2)C2CCCCC2)cc1	inactive	–
CCOc1ccc(/C=N/NC(=O)c2ccc(CSc3nc4ccccc4[nH]3)cc2)cc1	inconclusive [cytotoxic, single point]	–
Cc1ccccc1-c1cc(C(=O)NCc2cccc(Br)c2)nn1CC1CC(c2cccc([N+](=O)[O-])c2)=NO1 (centres undefined)	inactive	–
Cc1ccc(OS(=O)Nc2cccc3nccnc23)cc1 (centres undefined)	active: 11.2 µM	–
Cc1ccccc1N(CC(=O)Nc1ccccc1C(=O)NCc1ccco1)S(=O)(=O)c1ccccc1	active: 20.6 µM	–
Cc1ccc(C)c(C2NC(=O)c3ccccc3N2)c1 (centres undefined)	active: 2.31 µM	–
COc1ccc(C(CNC(=O)c2cc3c(s2)CCC(C)C3)N2CCCC2)cc1 (centres undefined)	inconclusive [cytotoxic, single point]	–
CSc1ccc(Cl)c(C(=O)NCCOc2cc(C(C)C)ccc2C)c1	inconclusive [cytotoxic, single point]	–
NNC(=O)CN1C(c2ccccc2)=Nc2ccc(Br)cc2C1c1ccccc1 (centres undefined)	inconclusive [cytotoxic, single point]	–
CC(Sc1nnc(CC(=O)Nc2ccccc2F)n1C)C(=O)Nc1nccs1 (centres undefined)	inactive	–
NS(=O)(=O)c1ccc(CCNCc2cc(Cl)ccc2OCc2ccccc2)cc1	inconclusive [cytotoxic, single point]	–
Cc1ccc2cc(C#N)c(N3CCCN(C(=S)NCCCN(C)C)CC3)nc2c1	active: 20.6 µM	–
CCc1ccc(OCC(=O)Nc2ccncc2)c(Br)c1	inconclusive [cytotoxic, partial curve]	–
O=C(NNC(=S)NC(=O)c1cccnc1)c1ccc(Cl)cc1	inconclusive [cytotoxic, single point]	–
COc1ccc(C(C)=O)cc1CN(c1ccccc1OC)S(=O)(=O)c1cccs1	inactive	–
Cc1cc(=O)oc2c1ccc1oc(/C(=N/O)c3ccccc3)c(C)c12	inconclusive [cytotoxic, partial curve]	–

Structure (SMILES)	Potency	activity, negative = toxicity
CCN1CCN(c2nc(NCCO)c3ccccc3n2)CC1	inactive	–
O=C(NNC1=C(C(=O)C(F)(F)F)CCC1)c1ccccc1O	inconclusive [cytotoxic, single point]	–
Cc1nn(C)c(C(=O)NNC(=O)Nc2cccc(C(F)(F)F)c2)c1Cl	inconclusive [cytotoxic, single point]	–
CCN1C(=O)[C@@H]2[C@@H](c3ccc(-c4ccc(F)cc4)cc3)N3CCCC[C@@]3(C(=O)OC)[C@@H]2C1=O	–	inconclusive: -21.5% [cytotoxic]
O=[N+]([O-])c1ccc(N/N=C/c2ccccc2O)cc1	inconclusive [cytotoxic, single point]	–
Cc1cccnc1Nc1nc(-c2ccc(O)cc2O)cs1	inconclusive [cytotoxic, single point]	–
Nc1c(C(O)(C(F)(F)F)C(F)(F)F)ccc2ccccc12	inconclusive [cytotoxic, single point]	–
Cc1cccc(NC(=O)c2nc[nH]c2C(=O)N[C@@H](CCCCNC(=O)OC(C)(C)C)C(=O)OC(C)(C)C)c1	inconclusive [cytotoxic, single point]	–
CC(=O)N1CCN(C(=O)CSc2nc3c(cnn3-c3ccccc3)c(=O)[nH]2)CC1	inactive	–
CC(=O)NC(c1ccc(C)cc1)c1cc([N+](=O)[O-])c2cccnc2c1O (centres undefined)	inconclusive [cytotoxic, partial curve]	–
C[C@@H]1CN([C@H](C)CO)C(=O)Cc2cc(NS(=O)(=O)c3ccc(Cl)cc3)ccc2O[C@H]1CN(C)Cc1ccc(C(F)(F)F)cc1	inconclusive [cytotoxic, single point]	–
N/C(=N\OC(=O)CCCOc1ccccc1)c1ccccc1	inconclusive [rising, partial curve]	–
CCN(CC)CCN(C(=O)CCS(=O)(=O)c1ccccc1)c1nc2cc3c(cc2s1)OCO3	inconclusive [cytotoxic, single point]	–
CC(C)(C)C(=O)c1sc(Nc2ccccc2)nc1N	inconclusive [cytotoxic, single point]	–
Cc1ccc(N2C(=O)NC3(CCCCC3)C2=O)cc1	inactive	–
CC(/C=N/NC(=O)Cn1nccc1C)=C\c1ccc(C(C)C)cc1	inconclusive [cytotoxic, single point]	–
O=C(C1CCCCC1)N1CCC(CO)(Cc2ccccc2Cl)CC1	inactive	–
C[C@H]1CCC/C=C/[C@@H]2C[C@H](O)C[C@H]2[C@H](O)[C@H](S(=O)c2ccc(O)cc2)CC(=O)O1 (some centres undefined)	active: 0.146 µM	–
Cc1ccc(-n2c(=O)[nH]c3c(C(N)=O)nc(-c4ccc(C)o4)nc32)cc1	inconclusive [cytotoxic, single point]	–
CCOC(=O)N1CCN(C(=O)c2cn(C)c(=O)c3c2c2ccccc2n3C)CC1	inconclusive [cytotoxic, single point]	–
NC(=O)c1cc2ccc(O)cc2oc1=NCc1ccccc1	inconclusive [cytotoxic, partial curve]	–
COc1cc(CNc2ncnc3c2ncn3[C@H]2CN(Cc3ccc(Cl)cc3)C[C@@H](CO)O2)cc(OC)c1OC	inactive	–
COc1ccccc1N1CCN(S(=O)(=O)CCNC(=O)/C=C/c2ccc3c(c2)OCO3)CC1	inconclusive [cytotoxic, partial curve]	–
